This note sets out measurements from PubChem BioAssay AID360 (National Center for Advancing Translational Sciences (NCATS), 2006).

Screen size: about 48,000 compounds; about 550 (1.1%) were called active. Inconclusive results (about 4%) are left out. Cut-off read from the data, not from the text of the source: active = potency below about 15 µM; inconclusive = mostly about 16 µM to 33 µM; inactive = weaker than that. The list shows a part of the results.
Potency is the fitted concentration of half-maximal effect.

The test has as its target Lysosomal acid glucosylceramidase (Homo sapiens) (UniProt P04062). Briefly: Glucocerebrosidase.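 Note: the screen sought inhibitors.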 The conditions noted are these: purified enzyme, resorufin glucoside fluorescence (screen aimed at inhibitors), 20 min. The procedure, abridged: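 Compounds titrated against 0.2 nM normal enzyme, 30 uM resorufin beta-D-glucopyranoside substrate, citrate/phosphate buffer with taurocholate and tween-20, pH 5.9. Reaction ran 20 min at room temperature; fluorescence (Ex 548/Em 600) gave AC50.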
UniProt P04062, sequence (P04062 whole entry, looked up): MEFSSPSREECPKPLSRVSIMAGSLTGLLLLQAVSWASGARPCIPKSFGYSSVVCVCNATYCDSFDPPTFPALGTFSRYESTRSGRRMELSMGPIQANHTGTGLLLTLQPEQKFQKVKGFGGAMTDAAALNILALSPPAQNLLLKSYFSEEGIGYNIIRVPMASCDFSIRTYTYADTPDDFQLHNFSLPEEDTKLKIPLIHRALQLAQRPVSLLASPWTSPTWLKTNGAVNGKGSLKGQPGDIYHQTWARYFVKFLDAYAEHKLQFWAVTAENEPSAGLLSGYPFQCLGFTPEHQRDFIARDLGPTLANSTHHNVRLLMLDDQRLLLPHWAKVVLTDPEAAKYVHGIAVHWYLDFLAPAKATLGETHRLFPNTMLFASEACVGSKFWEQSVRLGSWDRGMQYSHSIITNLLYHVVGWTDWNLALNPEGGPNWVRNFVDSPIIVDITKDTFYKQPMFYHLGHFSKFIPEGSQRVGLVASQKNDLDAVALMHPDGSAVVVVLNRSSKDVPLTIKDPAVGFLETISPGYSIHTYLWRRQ
`CCC(=O)n1nc(-c2ccco2)nc1SCc1ccccc1`: the Potency is inactive: > 76.9 µM.

For `Cc1noc(C)c1S(=O)(=O)N1CCC(C(=O)N2CCN(c3ccc(F)cc3)CC2)CC1`, the Potency was inactive: > 76.9 µM. Next, `O=C(CSc1nnc(-c2ccc(S(=O)(=O)N3CCOCC3)cc2)o1)c1ccccc1F`: inactive: > 76.9 µM. Next, `CC(CCc1ccccc1)NC(=O)c1ccncc1` (configuration not stated): inactive: > 76.9 µM; `O=C(NCc1ccc(N2CCCC2=O)cc1)Nc1ccccc1`: inactive: > 76.9 µM. As for `Cc1ccc(SCCNC(=O)CN2C(=O)c3ccccc3S2(=O)=O)cc1`, the figure is inactive: > 76.9 µM; as for `CCCC(=O)N1CCN(c2ccc(NC(=O)c3cc4ccccc4o3)cc2)CC1`, inactive: > 76.9 µM. Regarding `O=C(Nc1nncs1)c1ccc(Br)c(S(=O)(=O)N2CCCC2)c1`, the Potency is inactive: > 76.9 µM. As for `CCSc1nnc(-c2cccc(S(=O)(=O)N(CC)CC)c2)n1Cc1ccccc1`, the figure is inactive: > 76.9 µM; as for `Cc1ccc(OCc2nc(C#N)c(NCc3ccco3)o2)cc1`, inactive: > 76.9 µM. Next, `Cc1ccsc1C(=O)OCC(=O)N1CC(=O)Nc2ccccc21`: inactive: > 76.9 µM; `O=C(Cn1nnc(-c2cccs2)n1)N1CCc2ccccc2C1`: inactive: > 76.9 µM; `CCOc1ccc(OCC)c(NC(=O)CSc2nc3cccnc3n2C)c1`: inactive: > 76.9 µM. As for `CC(C)OC(=O)CN1C(=O)C(C)(C)Oc2ccc(C(=O)NC3CC3)cc21`, the figure is inactive: > 76.9 µM; as for `COc1cccc(-c2nn(C)c3sc(C(=O)NCc4ccccn4)cc23)c1`, inactive: > 76.9 µM. `CCOC(=O)c1[nH]c(C)c(C(=O)NC2CCN(C(=O)OCC)CC2)c1C`: the Potency was inactive: > 76.9 µM.

With `COc1cccc(NC(=O)N2CCC(C(N)=O)(N3CCCCC3)CC2)c1`, the Potency was inactive: > 76.9 µM. Turning to `CCN=C1SC(C(=O)Nc2cccc(C(=O)O)c2)CC(=O)N1CC` (configuration not stated), the Potency was inactive: > 76.9 µM. For the compound `Cc1ccc(-n2nc3c(c2NC(=O)c2cccs2)CSC3)cc1`, the Potency was inactive: > 76.9 µM. As for `COc1ccccc1CC1(C)NC(=O)N(CC(=O)N2CCc3ccccc3C2)C1=O` (configuration not stated), the Potency was inactive: > 76.9 µM. Next, `CCOc1cccc(=O)c2c(C)n(C)c(C)c12`: inactive: > 76.9 µM; `Cn1c(N)c(C(=O)CSc2nc3ccccc3n2-c2ccccc2)c(=O)n(C)c1=O`: inactive: > 76.9 µM; `O=C(O)C1CC=CCC1C(=O)NCc1ccccc1` (configuration not stated): inactive: > 76.9 µM. `COc1ccc(C2C3=C(CC(C)(C)CC3=O)Nc3c2c(=O)[nH]c(=O)n3Cc2ccccc2)cc1OC` (configuration not stated): the Potency is inactive: > 76.9 µM. Next, `COc1ccc(-c2nnc(SCC(=O)N3CCCC3)o2)cc1OC`: inactive: > 76.9 µM; `COc1cc(NC(=O)C2COc3ccccc3O2)c(OC)cc1Cl` (configuration not stated): inactive: > 76.9 µM; `COC(=O)C1CCN(C(=O)CCCOc2ccccc2)CC1`: inactive: > 76.9 µM. Consider `CC(C)c1cc(C(=O)O)on1`, for which the Potency was inactive: > 76.9 µM. For the compound `C=C(C)COc1ccc(-c2[nH]ncc2-c2ccccc2OC)c(O)c1`, the Potency was inactive: > 76.9 µM. Next, `CCC(=O)N1CCc2cc(S(=O)(=O)NCCC(=O)N3CCc4ccccc4C3)ccc21`: inactive: > 76.9 µM.

`Cc1ccc(S(=O)(=O)N2CCC(C(=O)N3CCC(C(=O)NCc4cccnc4)CC3)CC2)cc1`: the Potency is inactive: > 76.9 µM.

For `Cc1ccc(C)c2[nH]c(=O)c(CN(Cc3ccco3)S(=O)(=O)c3ccc4c(c3)OCCO4)cc12`, the Potency is inactive: > 76.9 µM. For the compound `CC(=O)N1c2c(cc(Br)cc2S(=O)(=O)N2CCN(C(=O)c3ccco3)CC2)CC1C` (configuration not stated), the Potency was inactive: > 76.9 µM. Next, `COc1ccc(CCNC(=O)COc2nsnc2N2CCOCC2)cc1OC`: inactive: > 76.9 µM; `COc1ccccc1NC(=O)c1cccc(NC(=O)c2ccco2)c1`: inactive: > 76.9 µM; `CCOc1ccc(CCNC(=O)C2CCN(c3nn4c(=O)cc(C)nc4s3)CC2)cc1OCC`: inactive: > 76.9 µM. On to `Cc1ccc(Cl)cc1NC(=O)C1CCCN(S(=O)(=O)c2c(C)noc2C)C1` (configuration not stated), for which the Potency is inactive: > 76.9 µM. Next, `CNC(=O)c1ccc(OCc2ccccc2)c(OC)c1`: inactive: > 76.9 µM; `COc1ccc2c(CN(C)c3ccccc3)cc(=O)oc2c1`: inactive: > 76.9 µM; `c1n[nH]c(NCc2ccc3c(c2)OCO3)n1`: inactive: > 76.9 µM. Next, `O=C(COC(=O)c1ccco1)Nc1cccc(Br)c1`: inactive: > 76.9 µM; `Cc1csc(=O)n1CCC(=O)O`: inactive: > 76.9 µM; `CCSC1=C(C#N)C(c2cccc(Br)c2)CC(=O)N1` (configuration not stated): inactive: > 76.9 µM.

As to `Fc1ccc(-c2nc3nc4ccccc4nc3n2Cc2ccco2)cc1`, the Potency was inactive: > 76.9 µM. For the compound `Cc1noc(C)c1COc1cccc(C(=O)N2CCN(C/C=C/c3ccccc3)CC2)c1`, the Potency is inactive: > 76.9 µM.

With `COC(=O)C(CC(=O)c1ccc(Br)cc1)n1ccnc1` (configuration not stated), the Potency was inactive: > 76.9 µM. Next, `O=C(O)c1cccc2c1C(=O)N(Cc1ccncc1)C2`: inactive: > 76.9 µM; `COc1cccc(CNc2ccc(F)c(Cl)c2)c1O`: inactive: > 76.9 µM; `CCOc1ccccc1N1CCN(C(=O)c2cc3c(s2)CCC3)CC1`: inactive: > 76.9 µM. As for `CCN(C(=O)c1cc2cc3ccc(C)cc3nc2o1)c1ccc(OC)cc1`, the figure is inactive: > 76.9 µM; as for `Cc1ccc(C(=O)Nc2cccc(C(=O)NCc3ccccc3)c2)o1`, inactive: > 76.9 µM. Next, `COc1ccccc1N(CC(=O)NC1CCCC1)C(=O)c1csnn1`: inactive: > 76.9 µM; `COc1cc(C(=O)Nc2ccc3c(c2)OCCO3)ccc1OC(C)C`: inactive: > 76.9 µM; `CCC(=O)c1ccc(OCC(O)Cn2c(C)nc3ccccc32)cc1` (configuration not stated): “inactive”.

As to `COc1ccc(N2C(=O)C(Cl)=C(N3CCCC3)C2=O)cc1`, the Potency is inactive: > 76.9 µM. Turning to `COc1ccccc1-c1nc(C#N)c(N2CCC(Cc3ccccc3)CC2)o1`, the Potency was inactive: > 76.9 µM. Turning to `NC(=O)C1CCN(C(=O)c2cc(S(=O)(=O)N3CCOCC3)c(Cl)cc2Cl)CC1`, the Potency is inactive: > 76.9 µM.
